In PMC10282087:
Results are given in words; binding and its absence hold for the method and conditions named. In cells and extracts the contact can be indirect. Some results given as binding are weak or reduced against the parent protein; the word gives no strength. Blank lines part the entries; values can stand above or below the molecule they belong to.

Sequences of proteins named here, by UniProt entry; tags and fusion partners are left off. A change or cut given only in a name is not applied to a line headed by its entry. A line that says so, or that is headed by a name, gives the form on record, which may keep a tag or linker. Residues count along the entry.
UniProt Q14145: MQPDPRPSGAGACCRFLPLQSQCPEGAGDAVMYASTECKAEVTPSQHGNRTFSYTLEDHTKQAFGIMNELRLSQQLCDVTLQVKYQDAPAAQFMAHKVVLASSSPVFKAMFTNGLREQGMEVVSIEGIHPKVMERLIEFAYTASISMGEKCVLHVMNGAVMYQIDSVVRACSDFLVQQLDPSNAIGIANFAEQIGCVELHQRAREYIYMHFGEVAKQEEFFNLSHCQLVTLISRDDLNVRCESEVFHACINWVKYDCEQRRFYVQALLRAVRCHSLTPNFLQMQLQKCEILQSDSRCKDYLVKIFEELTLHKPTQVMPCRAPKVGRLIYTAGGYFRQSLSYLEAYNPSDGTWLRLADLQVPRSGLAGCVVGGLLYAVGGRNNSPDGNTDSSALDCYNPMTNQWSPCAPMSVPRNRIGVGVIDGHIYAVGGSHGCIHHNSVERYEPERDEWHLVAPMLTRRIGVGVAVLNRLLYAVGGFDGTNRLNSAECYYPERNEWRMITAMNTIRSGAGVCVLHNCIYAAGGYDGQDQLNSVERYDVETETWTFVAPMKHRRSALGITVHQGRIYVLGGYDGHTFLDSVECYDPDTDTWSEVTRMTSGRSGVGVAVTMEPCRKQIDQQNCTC
FLAG-tagged BTB domain of KEAP1: residues 77-149 of Q14145
UniProt Q9Z2X8: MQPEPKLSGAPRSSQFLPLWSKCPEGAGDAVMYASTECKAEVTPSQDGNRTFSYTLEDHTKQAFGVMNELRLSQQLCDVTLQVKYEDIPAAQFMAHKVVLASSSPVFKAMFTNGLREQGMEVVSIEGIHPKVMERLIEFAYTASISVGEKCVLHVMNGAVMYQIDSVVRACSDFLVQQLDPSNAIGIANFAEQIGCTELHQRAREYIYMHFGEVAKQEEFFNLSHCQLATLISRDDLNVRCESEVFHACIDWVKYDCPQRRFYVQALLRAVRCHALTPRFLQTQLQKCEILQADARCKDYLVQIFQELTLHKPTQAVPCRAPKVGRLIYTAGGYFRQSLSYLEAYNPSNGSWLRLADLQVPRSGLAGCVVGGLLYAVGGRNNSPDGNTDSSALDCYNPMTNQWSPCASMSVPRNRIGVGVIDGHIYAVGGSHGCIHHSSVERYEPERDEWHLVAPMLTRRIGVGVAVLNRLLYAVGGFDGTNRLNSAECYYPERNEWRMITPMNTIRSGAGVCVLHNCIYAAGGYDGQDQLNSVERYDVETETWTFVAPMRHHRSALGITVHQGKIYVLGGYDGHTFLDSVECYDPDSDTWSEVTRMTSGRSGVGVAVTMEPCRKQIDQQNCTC

How the values were obtained:
[1] = biological target: GST-USP25 (human) (UniProt Q9UHP3); assay: pull-down; about 25 or 50 ug of purified beads-bound GST-USP25 incubated with cell lysates at 4 C overnight; washed five times with GST buffer (1 mM EDTA, pH8.0 tris-HCl, 200 mM NaCl, 1% Triton X-100); western blotting; only the target purified
[2] = biological target: FLAG-tagged USP25 (ubiquitin-specific peptidase 25) (human) (UniProt Q9UHP3); assay: co-IP; HEK293T cells expressing FLAG-tagged proteins or domains, lysed in NETN buffer; Flag beads; washed with NETN at least 3 times; western blotting
[3] = biological target: FLAG-tagged KEAP1 (human) (UniProt Q14145); assay: as above
[4] = biological target: FLAG-tagged BTB domain of KEAP1 (human) (UniProt Q14145); assay: as above
[5] = biological target: KEAP1, endogenous in mouse liver (mouse (endogenous in liver)) (UniProt Q9Z2X8); assay: co-IP; endogenous USP25 or KEAP1 immunoprecipitated from liver homogenates of WT mice treated with or without APAP (300 mg/kg, i.p.) for 6 h; western blotting

binding [1]: binds
Molecule: FLAG-tagged KEAP1 (from UniProt Q14145 1-624)

binding [2]: binds
Molecule: Kelch-like ECH-associated protein 1 (KEAP1), endogenous in HEK293T cells (from UniProt Q14145 1-624)

binding [3]: binds | binding [4]: no binding
Molecule: USP25, endogenous in HEK293T cells (from UniProt Q9UHP3 1-1055) (enzyme)

binding [5]: binds
B1: USP25, endogenous in mouse liver (enzyme, UniProt P57080 1-1055)
chain: MTVEQNVLQQSAAQKHQQTFLNQLREITGINDAQILQQALKDSNGNLELAVAFLTAKNAKTPPQEETGYYQTALPGNDRYISVGSQADANVIDLTGDDKDDLQRAIALSLAESNRAFRETGITDEEQAISRVLEASIAENKACLKRTPIEVWRDSRNPYDRKRQEKAPVGLKNVGNTCWFSAVIQSLFNLLEFRRLVLNYKPPSNAQDLPRNQKEHRNLPFMRELRYLFALLVGTKRKYVDPSRAVEILKDAFKSNDSQQQDVSEFTHKLLDWLEDAFQMKAEEETDEEKPKNPMVELFYGRFLAMGVLEGKKFENTEMFGQYPLQVNGFKDLHECLEAAMIEGEIESLHSDNSGKSGQEHWFTELPPVLTFELSRFEFNQALGRPEKIHNKLEFPQVLYLDRYMHRNREITRIKREEIKRLKDYLTVLQQRLERYLSYGSGPKRFPLVDVLQYALEFASSKPVCTSPVDDIDASSSASGPLPSQSLPSTTEQQGPCASDLPGSSSPASGAALPLRSVIHKPFTQSRIPPDLPMHPAPRHITEEELCVLESCLHRWRTEIENDTRDLQESISRIHRTIELMYSDKSMIQVPYRLHAVLVHEGQANAGHYWAYIFDHRESRWMKYNDIAVTKSSWEELVRDSFGGYRNASAYCLMYIDDKAQFLIQEEFNKETGQALVGMETLPPDLRDFVEEDNQRFEKELEEWDTQLAQRSLQEKLLAAPKLREAEASATTAQAGGADYLEQPSRSDLSKHWKEETLRVIAKASHDLEDKGPETVLQSAIKLEYSRLVKLAQEDTPPETDYRLHHVLVYFIQNQAPKKIIEKTLLEQFGDRNLSFDERCHNIMKVAQAKLEMIKPEEVNLEEYEEWHADYKKFRETTMYLITGLENFQRESYIDSLLFLLCAYQNNKELLSKGPYRGHDGELISHYRRECLLKLNEQAAELFESGEDGDVNNGLIIMNEFIVPFLPLLLVDDMEEKDILAVEDMRNRWCSYLGQEMEANLQEKLTDFLPKLLDCSTEIKGFHEPPKLPSYSAHELCERFARIMLSLSRTPADGR
